Measurements taken from PubChem BioAssay AID485344 (National Center for Advancing Translational Sciences (NCATS), 2010).
Among all 340,000 compounds or so, about 6,900 (2%) were called active. No stated cut-off is given here; in the data, active means inhibition above about 30%; inactive means below that, where a call was filed. This is a selection; strong and weak results do not stand in their true shares. Where no call is shown, the source filed none.

target: D(2) dopamine receptor (Homo sapiens) (UniProt P14416); assay: HTS Assay for Allosteric Antagonists of the Human D2 Dopamine Receptor: Primary Screen for Antagonists; conditions: HEK293 TREx D2 cells, calcium flux, dopamine EC80; at 10 µM; stronger effect = higher value; further: 0% is about no effect
Method in brief: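 Measurement of antagonist activity uses fluorescent calcium dye in inducible HEK293 T-REx D2 cells: 10 s baseline, compound addition with 180 s read, EC80 dopamine addition with a further 180 s read.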

Chain of UniProt P14416 (P14416 whole entry, looked up): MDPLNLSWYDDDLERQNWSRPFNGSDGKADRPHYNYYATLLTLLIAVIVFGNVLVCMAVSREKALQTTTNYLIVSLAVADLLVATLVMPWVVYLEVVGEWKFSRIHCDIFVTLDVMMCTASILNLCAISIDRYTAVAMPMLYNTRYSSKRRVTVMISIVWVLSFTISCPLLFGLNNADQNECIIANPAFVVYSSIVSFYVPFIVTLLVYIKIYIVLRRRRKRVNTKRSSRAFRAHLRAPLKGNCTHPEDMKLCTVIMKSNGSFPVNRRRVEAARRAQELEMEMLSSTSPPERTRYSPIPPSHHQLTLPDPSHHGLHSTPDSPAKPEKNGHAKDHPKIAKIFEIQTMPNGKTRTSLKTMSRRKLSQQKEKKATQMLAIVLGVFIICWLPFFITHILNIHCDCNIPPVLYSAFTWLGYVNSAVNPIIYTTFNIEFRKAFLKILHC

Row | Compound | inhibition
1 | Cc1ccc(C(=O)CSc2nc3cc(C(=O)NC4CCCC4)ccc3c(=O)n2CC2CCCO2)cc1 (stereo not given) | -0.373%
2 | CSc1cccc(NS(=O)(=O)c2ccc3[nH]cc(C(=O)N4CCCC4)c(=O)c3c2)c1 | 5.44%
3 | COc1ccc(OC)c(NC(=O)c2ccc(-c3nc(CSc4ccccc4)c(C)o3)cc2)c1 | 3.01%
4 | CC(C)(C)C(=O)Cn1c(=O)n(CCCCCC(=O)NCc2ccc3c(c2)OCO3)c(=O)c2sccc21 | -16.6%
5 | O=C(COc1ccc2c(c1)OCO2)Nc1ccc2c(c1)oc1ccccc12 | active: 37%
6 | Cc1ccc(NC(=O)CSc2nccn2C2CCCC2)cc1 | -8.85%
7 | Cc1ccc(NC(=O)Cn2cc(S(=O)(=O)c3ccc(F)cc3)c(=O)c3cc4c(cc32)OCO4)cc1 | 9.66%
8 | CCOc1ccccc1C1CC(=O)NC(C)=C1C(=O)OC1CCCCCC1 (stereo not given) | 5.86%
9 | COc1ccc(NC(=O)C2CCCN(S(=O)(=O)c3cn(C)cn3)C2)cc1Cl (stereo not given) | 1.13%
10 | COc1ccc(-n2c3c(c(=O)[nH]c2=O)C(NC(C)=O)(C(F)(F)F)C(=O)N3)cc1 (stereo not given) | 7.17%
11 | Cc1cccc(Oc2nc3ccccn3c(=O)c2/C=C(\C#N)c2nc3ccccc3s2)c1C | -2.12%
12 | O=C(CSc1nc2ccccc2nc1Cc1ccc(F)cc1)Nc1ccc2c(c1)OCO2 | -1.74%
13 | COCCNC(=O)Cn1c(=O)n(Cc2ccc(C(=O)NCCc3ccc(OC)c(OC)c3)cc2)c(=O)c2ccccc21 | 5.29%
14 | COc1cc(Cl)c(C)cc1NC(=O)CCCN1C(=O)C(c2ccccc2)Oc2cccnc21 (stereo not given) | 8.08%
15 | Cc1cccc(NC(=O)CCS(=O)(=O)c2ccc3c(c2)NC(=O)CS3)n1 | active: 38.8%
16 | COc1ccc(CCNC(=O)c2ccc3c(c2)CCN3S(=O)(=O)c2ccc(Cl)cc2)cc1 | 16.2%
17 | O=C(Nc1nnc(S(=O)(=O)N2CCCCCC2)s1)c1ccc(Br)cc1 | 11%
18 | CCN1CCc2nc(N)sc2C1 | active: 34.7%
19 | CC(=O)c1ccc(NC2=NS(=O)(=O)c3ccccc32)cc1 | 3.03%
20 | COc1ccc2c(C)cc(SCc3c(C)noc3C)nc2c1 | active: 30.6%
21 | COc1c(Cl)cc(C(=O)Nc2cccc(-c3nc4ccccc4[nH]3)c2)cc1Cl | 2.27%
22 | COc1ccc(Cl)cc1NC(=O)Cn1nnc2sc3c(c2c1=O)CCC(C(C)(C)C)C3 (stereo not given) | 18.3%
23 | CCc1cccc(C)c1NS(=O)(=O)c1c(C(=O)N2CCCCCC2)c(C)n(C)c1C | 9.04%
24 | Cc1ccc(Cl)cc1N1CCN(C(=O)CN2C(=O)COc3ccc(S(=O)(=O)N4CCOCC4)cc32)CC1 | -2.73%
25 | Cc1cc(C)c(Cn2c3ccccc3c3cnn(CC(=O)NCCc4ccccc4)c(=O)c32)c(C)c1 | -10.4%
